Here are results for 167 variants from the RNAGym collection of RNA variant scans (doi:10.7554/elife.90254).

The source gives no read counts; variants with many changes may rest on few reads.

First the molecules themselves.
B1: LINE1-mini (parent)
chain: GGCAGAGCUCAACACAGCGUGGCAAAGUGGCUGUGGCUAGACUGCC

This series covers variants of B1. The experiment in a line: self-cleavage, relative activity (ratio to wild type); higher = more cleavage; in vitro, sequencing; the parent is a self-cleaving ribozyme.
As to A4C A25U G35C G40A, the self-cleavage worked out at 0.08.
A4C G5U A6U G30C C46U: the self-cleavage was 0.05.
Turning to A4C G5U G7C G29U, the self-cleavage came out at 0.04.
Turning to A4C A16C G17U A39U, the self-cleavage was determined as 0.08.
With A4C C10A A12U G30C A41G, the self-cleavage is 0.03.
Turning to A4C C8G U9A G27U G29C, the self-cleavage amounted to 0.07.
With A4C G30A C46U, the self-cleavage turned out to be 0.03.
Take A4C C8G G19U: the self-cleavage stood at 0.04.
With A4C C10U G27C the figure was 0.09; with A4C G5A A39G, 0.01.
As for A4C A39C C46A, the self-cleavage worked out at 0.09.
A4C A25U A26U C37U: the self-cleavage came to 0.52.
For A4C G5A G27A G30C, the self-cleavage turned out to be 0.43.
For the variant A4C G17C C18A G29A, the self-cleavage was determined as 0.03.
Take A4C G33C C37U: the self-cleavage came out at 0.07.
With A4C G21U G44U, the self-cleavage is 0.03.
As for A4C U9C G17A G33U, the self-cleavage came to 0.03.
With A4C C31A C42U the figure was 0.03; with A4C A14C C18G G27C G33U, 0.1.
Take A4C C18U U38A: the self-cleavage was 0.42.
For the variant A4C U9C U28C, the self-cleavage is 0.01.
In the case of A4C C18A G19A, the self-cleavage is 0.34.
On to A4C C10G G22U A39U U43G, for which the self-cleavage was found to be 0.
To A4C U9C G22C belongs 0.03; to A4C U9A G21A G36A A39U A41G, 0.02; to A4C G21C C31A, 0.33.
With A4C G7A C37A C46U, the self-cleavage stood at 0.77.
As for A4C G22C A39G C46U, the self-cleavage was 0.17.
Regarding A4C C23G A25U, the self-cleavage stood at 0.01.
To A4C C23U A25U U28A U43A belongs 0.15; to A4C A16C G29C, 0.09.
As to A4C A16U G22U G30U, the self-cleavage was 0.27.
In the case of A4C G5A C13G G22A A24C, the self-cleavage came to 0.09.
For the variant A4C G7C C10G U28A, the self-cleavage amounted to 0.01.
For the variant A4C A11U G19C U20G G44C, the self-cleavage worked out at 0.
A4C G5U C13G A24U U28A G30U U34G: the self-cleavage stood at 0.01.
For the variant A4C C10G C42G, the self-cleavage amounted to 0.01.
Regarding A4C G21U U28G, the self-cleavage is 0.02.
Consider A4C G29A C31A, for which the self-cleavage is 0.07.
As to A4C G17C G19U C23G, the self-cleavage stood at 0.03.
As for A4C A14U U38G G40U, the self-cleavage came to 0.07.
As to A4C C8A U20A G22U G44C, the self-cleavage amounted to 0.1.
Take A4C A14G C42U U43A: the self-cleavage is 0.26.
Regarding A4C C15G G21A A24G U38A, the self-cleavage stood at 0.05.
For the variant A4C G22A C23U C42A, the self-cleavage turned out to be 0.34.
For the variant A4C C10A G17U G19U A25C, the self-cleavage amounted to 0.02.
For the variant A4C A16G G21A U28C, the self-cleavage was determined as 0.25.
Turning to A4C G5U A12G C46A, the self-cleavage was 0.01.
A4C G30C G35A: the self-cleavage worked out at 0.05.
A4C C10A C15U G36U U38C: the self-cleavage was determined as 0.01.
For the variant A4C G17U G21A, the self-cleavage is 0.02.
A4C A12U C18A: the self-cleavage is 0.01.
Regarding A4C C8A U9C A16G A26U G36A, the self-cleavage amounted to 0.09.
With A4C C8A C23A G27C C42A G44U, the self-cleavage worked out at 0.14.
Turning to A4C G17A C23A, the self-cleavage is 0.05.
As to A4C G5U C8U, the self-cleavage was found to be 0.23.
In the case of A4C G17A C42G, the self-cleavage was 0.11.
As for A4C G5U C10A, the self-cleavage was 0.03.
For A4C C8G C10U U20C C45A, the self-cleavage was found to be 0.01.
For A4C U9C G36A C45U, the self-cleavage stood at 0.09.
With A4C C15U G27U, the self-cleavage was found to be 0.21.
With A4C C15U G27A, the self-cleavage came out at 0.03.
Consider A4C G5A G30C, for which the self-cleavage amounted to 0.06.
As to A4C C10A U28C, the self-cleavage was 0.02.
On to A4C A12U A24C U28A, for which the self-cleavage is 0.05.
As to A4C C15U A39G, the self-cleavage stood at 0.29.
With A4C C10U C18A A26C, the self-cleavage stood at 0.07.
Turning to A4C G30U G33A, the self-cleavage amounted to 0.08.
Take A4C A16G U32G G33U G35C: the self-cleavage amounted to 0.02.
Regarding A4C C10U G27C U32A G35A C37A U38G, the self-cleavage is 0.03.
Turning to A4C G27U G40U, the self-cleavage came out at 0.39.
A4C G30C A39C: the self-cleavage was 0.1.
For A4C G30C A39U, the self-cleavage is 0.03.
For the variant A4C G7C U34A, the self-cleavage stood at 0.02.
For A4C G7C U34C, the self-cleavage is 0.07.
To A4C C13A C46A belongs 0; to A4C C31G G40C C45G, 0.05.
To A4C U9C A39G C46A belongs 0.02; to A4C C10A G19C C37U G40C A41C, 0; to A4C A12U G27A, 0.04.
As to A4C A11U G17A C23A A25U G33C U34A U38C C46A, the self-cleavage came to 0.
Consider A4C C10U U20C C31A C42U, for which the self-cleavage is 0.01.
A4C G7U C18U: the self-cleavage was found to be 0.12.
To A4C C8U A16C G27C G33U belongs 0.13.
In the case of A4C C8G C31A C42U, the self-cleavage stood at 0.24.
Turning to A4C G21C C45A, the self-cleavage is 0.21.
As for A4C C13A C15G, the self-cleavage stood at 0.02.
A4C C15A G40A: the self-cleavage was 0.11.
To A4C G7U C13U G21C G27U G29C belongs 0.37.
As to A4C U9A A41C, the self-cleavage was determined as 0.36.
Regarding A4C U9A C10G A12U, the self-cleavage came to 0.04.
With A4C G17A G19U C31A A41U the figure was 0.03; with A4C C13U G21A C37A U38A U43A, 0.66; with A4C G17U A24G, 0.03.
As to A4C A14U G27C, the self-cleavage was found to be 0.65.
With A4C G17U G27C G30A C31A the figure was 0.64.
Take A4C C8A A26U C42A: the self-cleavage came to 1.45.
With A4C G17C G27A G30U G35U U38A, the self-cleavage stood at 0.01.
A4C A16C A24C G36U C46U: the self-cleavage was determined as 0.15.
For A4C C13A G19U U28A G44A, the self-cleavage was found to be 0.02.
To A4C G5U C15A U28G C46U belongs 0.03.
In the case of A4C U9A C13U A14G C42A, the self-cleavage stood at 0.02.
As for A4C C10A C13U A14C C15A U34A, the self-cleavage came out at 0.06.
Consider A4C C13A C45U, for which the self-cleavage came out at 0.24.
As to A4C G17A C37A G40U, the self-cleavage worked out at 0.05.
Regarding A4C G27C U43C, the self-cleavage was determined as 0.
To A4C C8U G21U G29U C37G belongs 0.03.
Turning to A4C C8G U9G U32G G33U U34G G40C, the self-cleavage came out at 0.02.
Turning to A4C G5C A26C G29A, the self-cleavage was found to be 0.06.
Consider A4C C10G G19A G27C G36C C37G U43G, for which the self-cleavage worked out at 0.
In the case of A4C A11U C13A G33U U34G A41C, the self-cleavage is 0.01.
With A4C C10U A25U the figure was 0.01.
To A4C C10U U20G belongs 0.01; to A4C C10A G30C G40U, 0; to A4C G5A A14U C42A U43G, 0.03.
Consider A4C C18U G21U, for which the self-cleavage came out at 0.28.
As for A4C C8A A12C A25U, the self-cleavage stood at 0.05.
For the variant A4C C10U G30U, the self-cleavage is 0.02.
Take A4C C10A C45U: the self-cleavage amounted to 0.03.
For A4C G19C G21C G30C A39U, the self-cleavage turned out to be 0.13.
With A4C C18A G35C the figure was 0.02.
Regarding A4C U9C C10U C13U C15G C18U G21C, the self-cleavage is 0.01.
For A4C A12G G21A G40U, the self-cleavage came to 0.02.
In the case of A4C U9A C23U A26U, the self-cleavage came out at 0.29.
A4C G17U G22C G33C C37U U38C: the self-cleavage is 0.08.
To A4C G17U G30C belongs 0.05.
As for A4C A12C A24C, the self-cleavage came to 0.02.
A4C G7A U9G C10U U28C: the self-cleavage amounted to 0.05.
On to A4C A14U G30U C31G G40A, for which the self-cleavage amounted to 0.09.
To A4C G22C C37U belongs 0.04; to A4C C23A A24U, 0.12.
With A4C G7A C8U, the self-cleavage was found to be 0.14.
For the variant A4C C15G C42G, the self-cleavage amounted to 0.01.
As for A4C G17U C45A, the self-cleavage was 0.02.
As to A4C A11G U38A, the self-cleavage came to 0.04.
Turning to A4C G27A C37A, the self-cleavage turned out to be 0.07.
As to A4C C10G A24C A41C C45U, the self-cleavage was determined as 0.01.
Consider A4C G7C C10U C18U G21C G30A G40C, for which the self-cleavage was 0.05.
With A4C A12U A14C A24G C31G the figure was 0.02; with A4C G5A U28G G30C, 0.48.
Take A4C G5U A6C G7C C8A C31G: the self-cleavage turned out to be 0.43.
On to A4C A14G C23A C31G G33A G35U C46A, for which the self-cleavage was determined as 0.25.
Take A4C G29U U43G: the self-cleavage amounted to 0.04.
On to A4C C18U G35A C45U, for which the self-cleavage was determined as 0.03.
As to A4C A26U U28C G30U U32A U43A, the self-cleavage stood at 0.03.
Take A4C G5A C23U: the self-cleavage came to 0.21.
With A4C C13U U20A C31G G40U C42G U43A the figure was 0.01.
For the variant A4C G22U C23A G35U U38A C46U, the self-cleavage turned out to be 0.01.
With A4C C31G G36U the figure was 0.02.
For A4C G22A C23G A26C A41U, the self-cleavage was 0.48.
With A4C G5C G22A the figure was 0.06; with A4C G33C C42U, 0.08; with A4C C13G A26G, 0.1.
With A4C G35C A39U the figure was 0.09; with A4C A12C A14U, 0.08.
For the variant A4C U9C C13A C18A, the self-cleavage is 0.01.
With A4C C15U G19U U32C C37U, the self-cleavage was found to be 0.13.
Take A4C A14G G40U: the self-cleavage came out at 0.15.
Take A4C G22U C37U A39U: the self-cleavage was 1.16.
As for A4C C13A A14U C18A, the self-cleavage amounted to 0.04.
Turning to A4C G17A G30C, the self-cleavage amounted to 0.11.
For A4C A11G C18G G40A, the self-cleavage is 0.01.
With A4C C8A C10U A14C U28C the figure was 0.01; with A4C G35U C45A C46U, 0.03; with A4C A24U G33A, 0.05.
To A4C A26G C42G belongs 0.16.
With A4C G5A A16C C18U A26U U28A G44C, the self-cleavage came out at 0.02.
